# Laboratory results reported in the supplement of paper PMC8728848.
# This is one part of the list.
# Columns and labels:
# Assay in all cases: glycan array binding signal (z-score within array); higher = stronger binding
# Conditions in all cases: glycan notation: IUPAC condensed, linker removed
# [1] = molecular target: Fuc(a1-2)Gal
# In short: (§1)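 The binding signal is a Z-score computed within each array and averaged over linkers. Arrays of the same protein sequence at different concentrations or buffers were also averaged together. Data originate from 3228 arrays in the Consortium for Functional Glycomics database, kept only where the protein sequence was available.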
# [2] = molecular target: Fuc(a1-2)Gal(b1-3)GalNAc
# In short: as §1
# [3] = molecular target: Fuc(a1-2)Gal(b1-3)GalNAc(b1-3)Gal
# In short: as §1
# [4] = molecular target: Fuc(a1-2)Gal(b1-3)GalNAc(b1-3)Gal(a1-4)Gal(b1-4)Glc
# In short: as §1
# [5] = molecular target: Fuc(a1-2)Gal(b1-3)GalNAc(b1-4)[Neu5Ac(a2-3)]Gal(b1-4)Glc
# In short: as §1
# [6] = molecular target: Fuc(a1-2)Gal(b1-3)GlcNAc
# In short: as §1
# [7] = molecular target: Fuc(a1-2)Gal(b1-3)GlcNAc(b1-3)Gal(b1-4)Glc
# In short: as §1
# [8] = molecular target: Fuc(a1-2)Gal(b1-3)[Fuc(a1-4)]GlcNAc
# In short: as §1
# [9] = molecular target: Fuc(a1-2)Gal(b1-4)Glc
# In short: as §1
# [10] = molecular target: Fuc(a1-2)Gal(b1-4)Glc6S
# In short: as §1
# [11] = molecular target: Fuc(a1-2)Gal(b1-4)GlcNAc
# In short: as §1
# [12] = molecular target: Fuc(a1-2)Gal(b1-4)GlcNAc(b1-3)Gal(b1-4)GlcNAc
# In short: as §1
# [13] = molecular target: Fuc(a1-2)Gal(b1-4)GlcNAc(b1-3)Gal(b1-4)GlcNAc(b1-3)Gal(b1-4)GlcNAc
# In short: as §1
# [14] = molecular target: Fuc(a1-2)Gal(b1-4)GlcNAc6S
# In short: as §1
# [15] = molecular target: Fuc(a1-2)Gal(b1-4)[Fuc(a1-3)]GlcNAc
# In short: as §1
# [16] = molecular target: Fuc(a1-2)Gal(b1-4)[Fuc(a1-3)]GlcNAc(b1-3)Gal(b1-4)[Fuc(a1-3)]GlcNAc
# In short: as §1
# [17] = molecular target: Fuc(a1-2)Gal(b1-4)[Fuc(a1-3)]GlcNAc(b1-3)Gal(b1-4)[Fuc(a1-3)]GlcNAc(b1-3)Gal(b1-4)[Fuc(a1-3)]GlcNAc
# In short: as §1
# [18] = molecular target: Fuc(a1-2)Gal6S(b1-4)Glc
# In short: as §1
# [19] = molecular target: Fuc(a1-2)Gal6S(b1-4)Glc6S
# In short: as §1
# [20] = molecular target: Fuc(a1-2)Gal6S(b1-4)GlcNAc
# In short: as §1
# [21] = molecular target: Fuc(a1-2)[Gal(a1-3)]Gal
# In short: as §1
# [22] = molecular target: Fuc(a1-2)[Gal(a1-3)]Gal(b1-3)GlcNAc
# In short: as §1
# [23] = molecular target: Fuc(a1-2)[Gal(a1-3)]Gal(b1-4)Glc
# In short: as §1
# [24] = molecular target: Fuc(a1-2)[Gal(a1-3)]Gal(b1-4)GlcNAc
# In short: as §1
# [25] = molecular target: Fuc(a1-2)[Gal(a1-3)]Gal(b1-4)[Fuc(a1-3)]GlcNAc
# In short: as §1
# [26] = molecular target: Fuc(a1-2)[Gal(a1-4)]Gal(b1-4)GlcNAc
# In short: as §1
# [27] = molecular target: Fuc(a1-2)[GalNAc(a1-3)]Gal
# In short: as §1
# [28] = molecular target: Fuc(a1-2)[GalNAc(a1-3)]Gal(b1-3)GlcNAc
# In short: as §1
# [29] = molecular target: Fuc(a1-2)[GalNAc(a1-3)]Gal(b1-4)Glc
# In short: as §1
# [30] = molecular target: Fuc(a1-2)[GalNAc(a1-3)]Gal(b1-4)GlcNAc
# In short: as §1
# [31] = molecular target: Fuc(a1-2)[GalNAc(a1-3)]Gal(b1-4)[Fuc(a1-3)]GlcNAc
# In short: as §1
# [32] = molecular target: Fuc(a1-2)[GalNAc(a1-4)]Gal(b1-4)GlcNAc
# In short: as §1
# [33] = molecular target: Fuc(a1-2)[GalNAc(b1-3)]Gal
# In short: as §1
# [34] = molecular target: Fuc(a1-3)GlcNAc
# In short: as §1
# [35] = molecular target: Fuc(a1-3)[Gal(b1-4)]Glc6S
# In short: as §1
# [36] = molecular target: Fuc(a1-3)[Gal(b1-4)]GlcNAc
# In short: as §1
# [37] = molecular target: Fuc(a1-3)[Gal(b1-4)]GlcNAc(b1-2)Man(a1-3)[Fuc(a1-3)[Gal(b1-4)]GlcNAc(b1-2)Man(a1-6)]Man(b1-4)GlcNAc(b1-4)GlcNAc
# In short: as §1
# [38] = molecular target: Fuc(a1-3)[Gal(b1-4)]GlcNAc(b1-2)Man(a1-6)[Gal(b1-4)GlcNAc(b1-2)Man(a1-3)]Man(b1-4)GlcNAc(b1-4)GlcNAc
# In short: as §1
# [39] = molecular target: Fuc(a1-3)[Gal(b1-4)]GlcNAc(b1-3)Gal(b1-3)[Fuc(a1-4)]GlcNAc
# In short: as §1
# [40] = molecular target: Fuc(a1-3)[Gal(b1-4)]GlcNAc(b1-4)Gal(b1-4)[Fuc(a1-3)]GlcNAc
# In short: as §1
# [41] = molecular target: Fuc(a1-3)[Gal(b1-4)]GlcNAc(b1-4)Gal(b1-4)[Fuc(a1-3)]GlcNAc(b1-4)Gal(b1-4)[Fuc(a1-3)]GlcNAc
# In short: as §1
# [42] = molecular target: Fuc(a1-3)[Gal(b1-4)]GlcNAc6S
# In short: as §1
# [43] = molecular target: Fuc(a1-3)[Gal3S(b1-4)]Glc6S
# In short: as §1
# [44] = molecular target: Fuc(a1-3)[Gal3S(b1-4)]GlcNAc
# In short: as §1
# [45] = molecular target: Fuc(a1-3)[Gal3S(b1-4)]GlcNAc6S
# In short: as §1
binder,measurement,setting,value
MD-2 (Homo sapiens) (protein) MLPFLFFSTLFSSIFTEAQKQYWVCNSSDASISYTYCDKMQYPISINVNPCIELKGSKGLLHIFYIPRRDLKQLYFNLYITVNTMNLPKRKEVICRGSDDDYSFCRALKGETVNTTISFSFKGIKFSKGKYKCVVEAISGSPEEMLFCLEFVILHQPNSN,glycan array binding signal (z-score),[1],-0.344
same,glycan array binding signal (z-score),[2],-0.261
same,glycan array binding signal (z-score),[3],0.083
same,glycan array binding signal (z-score),[4],-0.274
same,glycan array binding signal (z-score),[5],-0.162
same,glycan array binding signal (z-score),[6],-0.291
same,glycan array binding signal (z-score),[7],-0.341
same,glycan array binding signal (z-score),[8],-0.334
same,glycan array binding signal (z-score),[9],-0.313
same,glycan array binding signal (z-score),[10],-0.279
same,glycan array binding signal (z-score),[11],-0.057
same,glycan array binding signal (z-score),[12],-0.096
same,glycan array binding signal (z-score),[13],0.156
same,glycan array binding signal (z-score),[14],-0.043
same,glycan array binding signal (z-score),[15],-0.341
same,glycan array binding signal (z-score),[16],-0.312
same,glycan array binding signal (z-score),[17],-0.248
same,glycan array binding signal (z-score),[18],-0.261
same,glycan array binding signal (z-score),[19],2.35
same,glycan array binding signal (z-score),[20],-0.328
same,glycan array binding signal (z-score),[21],-0.346
same,glycan array binding signal (z-score),[22],-0.322
same,glycan array binding signal (z-score),[23],-0.422
same,glycan array binding signal (z-score),[24],-0.319
same,glycan array binding signal (z-score),[25],-0.443
same,glycan array binding signal (z-score),[26],-0.369
same,glycan array binding signal (z-score),[27],-0.333
same,glycan array binding signal (z-score),[28],-0.306
same,glycan array binding signal (z-score),[29],-0.074
same,glycan array binding signal (z-score),[30],-0.264
same,glycan array binding signal (z-score),[31],-0.413
same,glycan array binding signal (z-score),[32],-0.152
same,glycan array binding signal (z-score),[33],-0.302
same,glycan array binding signal (z-score),[34],-0.342
same,glycan array binding signal (z-score),[35],-0.026
same,glycan array binding signal (z-score),[36],-0.281
same,glycan array binding signal (z-score),[37],-0.106
same,glycan array binding signal (z-score),[38],-0.269
same,glycan array binding signal (z-score),[39],-0.22
same,glycan array binding signal (z-score),[40],-0.147
same,glycan array binding signal (z-score),[41],-0.473
same,glycan array binding signal (z-score),[42],-0.146
same,glycan array binding signal (z-score),[43],0.52
same,glycan array binding signal (z-score),[44],-0.144
same,glycan array binding signal (z-score),[45],1.79
